This passage reports binding signal results from PMC9911399, “Two distinct binding modes provide the RNA-binding protein RbFox with extraordinary sequence specificity”.

B1: GCUACGU (DNA:RNA)
RNA: GGGAGACCGGAAUUCAGAUUGUCCGCUACGUUUAAAUCCCGUCGUAGCCACCA
DNA 1: CAATCTGAATTCCGGTCTCCC
DNA 2: TGGTGGCTACGACGGGATT
B2: AUUCACU (DNA:RNA)
RNA: B1 RNA with G25A, C26U, A28C, C29A, G30C
DNA 1: CAATCTGAATTCCGGTCTCCC
DNA 2: TGGTGGCTACGACGGGATT
B3: CAGUAUA (DNA:RNA)
RNA: GGGAGACCGGAAUUCAGAUUGUCCCAGUAUAUUAAAUCCCGUCGUAGCCACCA
DNA 1: CAATCTGAATTCCGGTCTCCC
DNA 2: TGGTGGCTACGACGGGATT
B4: CAUCGAC (DNA:RNA)
RNA: B3 RNA with G27U, U28C, A29G, U30A, A31C
DNA 1: CAATCTGAATTCCGGTCTCCC
DNA 2: TGGTGGCTACGACGGGATT
B5: UCAUUUU (DNA:RNA)
RNA: B3 RNA with C25U, A26C, G27A, A29U, A31U
DNA 1: CAATCTGAATTCCGGTCTCCC
DNA 2: TGGTGGCTACGACGGGATT
B6: GUGCGGC (DNA:RNA)
RNA: B1 RNA with C26U, U27G, A28C, C29G, U31C
DNA 1: CAATCTGAATTCCGGTCTCCC
DNA 2: TGGTGGCTACGACGGGATT
B7: CCUCCGU (DNA:RNA)
RNA: B1 RNA with G25C, A28C
DNA 1: CAATCTGAATTCCGGTCTCCC
DNA 2: TGGTGGCTACGACGGGATT
B8: ACCAAAU (DNA:RNA)
RNA: B1 RNA with G25A, U27C, C29A, G30A
DNA 1: CAATCTGAATTCCGGTCTCCC
DNA 2: TGGTGGCTACGACGGGATT
B9: CCACUCC (DNA:RNA)
RNA: B3 RNA with A26C, G27A, U28C, A29U, U30C, A31C
DNA 1: CAATCTGAATTCCGGTCTCCC
DNA 2: TGGTGGCTACGACGGGATT
B10: AGCAAGA (DNA:RNA)
RNA: B3 RNA with C25A, A26G, G27C, U28A, U30G
DNA 1: CAATCTGAATTCCGGTCTCCC
DNA 2: TGGTGGCTACGACGGGATT
B11: UCGAAGC (DNA:RNA)
RNA: B1 RNA with G25U, U27G, C29A, U31C
DNA 1: CAATCTGAATTCCGGTCTCCC
DNA 2: TGGTGGCTACGACGGGATT
B12: GGAUCGA (DNA:RNA)
RNA: B1 RNA with C26G, U27A, A28U, U31A
DNA 1: CAATCTGAATTCCGGTCTCCC
DNA 2: TGGTGGCTACGACGGGATT
B13: AGUCGAG (DNA:RNA)
RNA: B1 RNA with G25A, C26G, A28C, C29G, G30A, U31G
DNA 1: CAATCTGAATTCCGGTCTCCC
DNA 2: TGGTGGCTACGACGGGATT
B14: GGUGAUC (DNA:RNA)
RNA: B3 RNA with C25G, A26G, G27U, U28G, A31C
DNA 1: CAATCTGAATTCCGGTCTCCC
DNA 2: TGGTGGCTACGACGGGATT
B15: UUUCUGG (DNA:RNA)
RNA: B1 RNA with G25U, C26U, A28C, C29U, U31G
DNA 1: CAATCTGAATTCCGGTCTCCC
DNA 2: TGGTGGCTACGACGGGATT
B16: GAAGGCA (DNA:RNA)
RNA: B3 RNA with C25G, G27A, U28G, A29G, U30C
DNA 1: CAATCTGAATTCCGGTCTCCC
DNA 2: TGGTGGCTACGACGGGATT
B17: UGCGUCA (DNA:RNA)
RNA: B3 RNA with C25U, A26G, G27C, U28G, A29U, U30C
DNA 1: CAATCTGAATTCCGGTCTCCC
DNA 2: TGGTGGCTACGACGGGATT
B18: UGUCGCC (DNA:RNA)
RNA: B1 RNA with G25U, C26G, A28C, C29G, G30C, U31C
DNA 1: CAATCTGAATTCCGGTCTCCC
DNA 2: TGGTGGCTACGACGGGATT
B19: AAUGGGA (DNA:RNA)
RNA: B3 RNA with C25A, G27U, U28G, A29G, U30G
DNA 1: CAATCTGAATTCCGGTCTCCC
DNA 2: TGGTGGCTACGACGGGATT
B20: UCACCGA (DNA:RNA)
RNA: B1 RNA with G25U, U27A, A28C, U31A
DNA 1: CAATCTGAATTCCGGTCTCCC
DNA 2: TGGTGGCTACGACGGGATT
B21: AUUUACA (DNA:RNA)
RNA: B3 RNA with C25A, A26U, G27U, U30C
DNA 1: CAATCTGAATTCCGGTCTCCC
DNA 2: TGGTGGCTACGACGGGATT
B22: GUGUACU (DNA:RNA)
RNA: B3 RNA with C25G, A26U, U30C, A31U
DNA 1: CAATCTGAATTCCGGTCTCCC
DNA 2: TGGTGGCTACGACGGGATT
B23: UACAGCC (DNA:RNA)
RNA: B3 RNA with C25U, G27C, U28A, A29G, U30C, A31C
DNA 1: CAATCTGAATTCCGGTCTCCC
DNA 2: TGGTGGCTACGACGGGATT
B24: CGUGACA (DNA:RNA)
RNA: B3 RNA with A26G, G27U, U28G, U30C
DNA 1: CAATCTGAATTCCGGTCTCCC
DNA 2: TGGTGGCTACGACGGGATT
B25: UCUAGGA (DNA:RNA)
RNA: B1 RNA with G25U, C29G, U31A
DNA 1: CAATCTGAATTCCGGTCTCCC
DNA 2: TGGTGGCTACGACGGGATT
B26: AGUCACG (DNA:RNA)
RNA: B3 RNA with C25A, A26G, G27U, U28C, U30C, A31G
DNA 1: CAATCTGAATTCCGGTCTCCC
DNA 2: TGGTGGCTACGACGGGATT
B27: GAGGGCG (DNA:RNA)
RNA: B3 RNA with C25G, U28G, A29G, U30C, A31G
DNA 1: CAATCTGAATTCCGGTCTCCC
DNA 2: TGGTGGCTACGACGGGATT
B28: GAAAUGA (DNA:RNA)
RNA: B1 RNA with C26A, U27A, C29U, U31A
DNA 1: CAATCTGAATTCCGGTCTCCC
DNA 2: TGGTGGCTACGACGGGATT
B29: GUGAGUC (DNA:RNA)
RNA: B3 RNA with C25G, A26U, U28A, A29G, A31C
DNA 1: CAATCTGAATTCCGGTCTCCC
DNA 2: TGGTGGCTACGACGGGATT
B30: UGCGGCA (DNA:RNA)
RNA: B3 RNA with C25U, A26G, G27C, U28G, A29G, U30C
DNA 1: CAATCTGAATTCCGGTCTCCC
DNA 2: TGGTGGCTACGACGGGATT
B31: CGGACUA (DNA:RNA)
RNA: B3 RNA with A26G, U28A, A29C
DNA 1: CAATCTGAATTCCGGTCTCCC
DNA 2: TGGTGGCTACGACGGGATT

Substitutions are numbered along the chain they refer to; changes in the protein carry UniProt numbers. Some of the results follow.

In the assay the target is T1, RBFOX1 RRM RbFoxmut (Fox-RRM*) (Homo sapiens, UniProt Q9NWB1 109-208, R118D;E147R;N151S;E152T).
T1 sequence: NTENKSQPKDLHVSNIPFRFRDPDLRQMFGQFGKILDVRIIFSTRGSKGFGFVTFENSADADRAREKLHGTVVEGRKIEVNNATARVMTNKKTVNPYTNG
In words: EMSA; HiTS-Eq, 1 nM pool, 10 min; buffer printed only for the single-RNA assays: 10 mM Tris pH 7.5, 150 mM NaCl, 3.4 mM EDTA, 0.001% NP-40, 30 C. To be noted: tags: His6 N-terminal (pET28a); label: 5' 32P. In short, it runs like this: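 Purified RbFox RRM, wild type or mutant, was incubated for 10 min in 50 µL with 1 nM of a 5′-radiolabelled RNA pool carrying 7 randomized nucleotides, whose flanks were annealed to DNA oligonucleotides, over a series of increasing protein concentrations. Unbound RNA was resolved on 8% native PAGE, cut out, reverse-transcribed, barcoded by PCR and sequenced on an Illumina HiSeq 2500. Relative association constants were derived from changes in read counts for each RNA species versus the control reaction and normalised to the cognate motif.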
Background: In EMSA bound probe runs differently from free probe, usually more slowly.
Take B1: the binding signal was 0.123 KA relative to UGCAUGU.

For the molecule B2, the binding signal was 0.0909 KA relative to UGCAUGU. Turning to B3, the binding signal was 0.154 KA relative to UGCAUGU. For B4 the value was 0.0973 KA relative to UGCAUGU. As to B5, the binding signal was 0.109 KA relative to UGCAUGU.

For B6, the binding signal is 0.113 KA relative to UGCAUGU. As to B7, the binding signal is 0.0837 KA relative to UGCAUGU. To B8 belongs 0.074 KA relative to UGCAUGU; to B9, 0.105 KA relative to UGCAUGU.

As for B10, the binding signal was 0.0939 KA relative to UGCAUGU.

Consider B11, for which the binding signal is 0.0896 KA relative to UGCAUGU. With B12, the binding signal was 0.293 KA relative to UGCAUGU. For B13, the binding signal was 0.093 KA relative to UGCAUGU.

B14: the binding signal was 0.284 KA relative to UGCAUGU. With B15, the binding signal is 0.0692 KA relative to UGCAUGU.

With B16, the binding signal was 0.104 KA relative to UGCAUGU. On to B17, for which the binding signal was 0.155 KA relative to UGCAUGU. To B18 belongs 0.138 KA relative to UGCAUGU; to B19, 0.0854 KA relative to UGCAUGU; to B20, 0.077 KA relative to UGCAUGU. With B21, the binding signal is 0.119 KA relative to UGCAUGU.

As for B22, the binding signal is 0.101 KA relative to UGCAUGU. As to B23, the binding signal is 0.0958 KA relative to UGCAUGU. As for B24, the binding signal is 0.0765 KA relative to UGCAUGU.

In the case of B25, the binding signal was 0.0664 KA relative to UGCAUGU.

Consider B26, for which the binding signal is 0.0661 KA relative to UGCAUGU.

As to B27, the binding signal was 0.0994 KA relative to UGCAUGU.

Consider B28, for which the binding signal is 0.0974 KA relative to UGCAUGU. As for B29, the binding signal is 0.138 KA relative to UGCAUGU.

For the molecule B30, the binding signal was 0.162 KA relative to UGCAUGU. Regarding B31, the binding signal was 0.107 KA relative to UGCAUGU.
